Measured values taken from publication PMC3262128.
No constants are given. Whether binding was seen depends on the method and setting. For some assays here: In cells and extracts the contact can be indirect. Some binding calls cover weakened binding; strength is not graded here.

By UniProt entry, the sequences of proteins in these tests, tags left out. Where a name states a change or a piece, a line headed by the entry shows the natural chain unless it says otherwise. Chains listed by the source or under a name are the forms on record and can include a tag or linker. Residues count along the entry.
UniProt Q8IXW5: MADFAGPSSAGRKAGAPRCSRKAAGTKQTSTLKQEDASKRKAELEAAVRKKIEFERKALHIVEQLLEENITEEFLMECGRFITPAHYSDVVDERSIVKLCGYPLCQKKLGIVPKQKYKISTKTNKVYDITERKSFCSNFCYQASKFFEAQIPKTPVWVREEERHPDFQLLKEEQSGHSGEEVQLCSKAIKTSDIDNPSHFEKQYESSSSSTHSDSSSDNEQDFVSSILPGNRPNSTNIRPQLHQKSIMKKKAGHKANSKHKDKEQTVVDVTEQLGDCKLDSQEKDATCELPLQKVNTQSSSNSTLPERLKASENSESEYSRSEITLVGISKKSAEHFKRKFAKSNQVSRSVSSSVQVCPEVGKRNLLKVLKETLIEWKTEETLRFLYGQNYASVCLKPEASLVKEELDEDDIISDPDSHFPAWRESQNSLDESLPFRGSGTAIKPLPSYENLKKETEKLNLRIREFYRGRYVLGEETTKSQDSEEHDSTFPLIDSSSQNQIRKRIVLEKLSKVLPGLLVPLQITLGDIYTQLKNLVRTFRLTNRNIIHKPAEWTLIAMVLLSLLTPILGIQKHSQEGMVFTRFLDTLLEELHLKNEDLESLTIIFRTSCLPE
Flag-tagged RPAP2 N-terminal region (1–334): residues 1-334 of Q8IXW5
UniProt Q96HW7: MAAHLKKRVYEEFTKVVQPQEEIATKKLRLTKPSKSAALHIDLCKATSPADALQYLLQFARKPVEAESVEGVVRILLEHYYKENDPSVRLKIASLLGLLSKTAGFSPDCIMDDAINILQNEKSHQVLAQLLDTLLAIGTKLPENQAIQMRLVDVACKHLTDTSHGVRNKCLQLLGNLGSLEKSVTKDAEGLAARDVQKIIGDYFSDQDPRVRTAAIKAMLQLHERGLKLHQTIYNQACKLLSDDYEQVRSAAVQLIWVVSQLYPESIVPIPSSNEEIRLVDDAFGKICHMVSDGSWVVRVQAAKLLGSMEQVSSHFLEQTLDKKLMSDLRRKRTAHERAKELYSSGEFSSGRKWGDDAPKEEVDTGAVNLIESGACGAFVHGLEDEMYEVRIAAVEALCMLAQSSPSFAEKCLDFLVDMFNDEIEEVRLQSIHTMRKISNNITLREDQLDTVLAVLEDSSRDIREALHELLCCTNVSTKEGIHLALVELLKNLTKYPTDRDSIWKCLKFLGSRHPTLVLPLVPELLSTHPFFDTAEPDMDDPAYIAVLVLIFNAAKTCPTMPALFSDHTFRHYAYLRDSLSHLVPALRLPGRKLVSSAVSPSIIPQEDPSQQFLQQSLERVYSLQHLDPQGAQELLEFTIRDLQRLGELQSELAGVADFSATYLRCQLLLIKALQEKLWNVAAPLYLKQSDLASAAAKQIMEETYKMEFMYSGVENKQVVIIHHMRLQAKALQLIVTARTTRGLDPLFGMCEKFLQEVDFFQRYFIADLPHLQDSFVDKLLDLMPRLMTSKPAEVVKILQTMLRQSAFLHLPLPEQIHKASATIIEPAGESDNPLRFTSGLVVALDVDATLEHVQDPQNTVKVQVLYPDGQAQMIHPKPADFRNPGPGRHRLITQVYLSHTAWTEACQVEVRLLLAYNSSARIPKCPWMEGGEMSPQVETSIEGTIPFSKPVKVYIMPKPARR
UniProt Q6P9B9: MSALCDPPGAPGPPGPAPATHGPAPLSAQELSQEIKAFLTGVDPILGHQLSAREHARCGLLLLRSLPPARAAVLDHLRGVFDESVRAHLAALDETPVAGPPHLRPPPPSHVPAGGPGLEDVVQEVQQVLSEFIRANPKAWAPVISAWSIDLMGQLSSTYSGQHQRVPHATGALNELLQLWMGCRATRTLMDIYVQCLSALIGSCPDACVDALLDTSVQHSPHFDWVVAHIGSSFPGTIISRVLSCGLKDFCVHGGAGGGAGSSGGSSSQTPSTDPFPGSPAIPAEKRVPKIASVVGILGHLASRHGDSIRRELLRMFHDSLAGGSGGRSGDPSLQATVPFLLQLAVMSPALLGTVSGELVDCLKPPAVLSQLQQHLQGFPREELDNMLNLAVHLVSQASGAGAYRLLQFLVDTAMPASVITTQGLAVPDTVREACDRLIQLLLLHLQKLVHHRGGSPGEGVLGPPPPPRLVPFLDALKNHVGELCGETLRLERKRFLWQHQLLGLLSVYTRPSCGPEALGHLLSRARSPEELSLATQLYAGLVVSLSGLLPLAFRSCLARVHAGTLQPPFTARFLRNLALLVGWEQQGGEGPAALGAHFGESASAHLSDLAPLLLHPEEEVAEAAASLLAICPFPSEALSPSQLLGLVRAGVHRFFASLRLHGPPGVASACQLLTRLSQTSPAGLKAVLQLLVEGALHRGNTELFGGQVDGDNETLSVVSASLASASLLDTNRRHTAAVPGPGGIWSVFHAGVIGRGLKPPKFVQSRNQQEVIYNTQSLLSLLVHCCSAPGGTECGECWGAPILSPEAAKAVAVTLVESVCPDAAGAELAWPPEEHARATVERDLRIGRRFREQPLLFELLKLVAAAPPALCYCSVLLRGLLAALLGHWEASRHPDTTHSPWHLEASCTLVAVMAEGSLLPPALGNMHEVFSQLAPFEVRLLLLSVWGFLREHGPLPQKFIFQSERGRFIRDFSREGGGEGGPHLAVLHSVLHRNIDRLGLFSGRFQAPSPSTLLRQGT
UniProt Q9UL03: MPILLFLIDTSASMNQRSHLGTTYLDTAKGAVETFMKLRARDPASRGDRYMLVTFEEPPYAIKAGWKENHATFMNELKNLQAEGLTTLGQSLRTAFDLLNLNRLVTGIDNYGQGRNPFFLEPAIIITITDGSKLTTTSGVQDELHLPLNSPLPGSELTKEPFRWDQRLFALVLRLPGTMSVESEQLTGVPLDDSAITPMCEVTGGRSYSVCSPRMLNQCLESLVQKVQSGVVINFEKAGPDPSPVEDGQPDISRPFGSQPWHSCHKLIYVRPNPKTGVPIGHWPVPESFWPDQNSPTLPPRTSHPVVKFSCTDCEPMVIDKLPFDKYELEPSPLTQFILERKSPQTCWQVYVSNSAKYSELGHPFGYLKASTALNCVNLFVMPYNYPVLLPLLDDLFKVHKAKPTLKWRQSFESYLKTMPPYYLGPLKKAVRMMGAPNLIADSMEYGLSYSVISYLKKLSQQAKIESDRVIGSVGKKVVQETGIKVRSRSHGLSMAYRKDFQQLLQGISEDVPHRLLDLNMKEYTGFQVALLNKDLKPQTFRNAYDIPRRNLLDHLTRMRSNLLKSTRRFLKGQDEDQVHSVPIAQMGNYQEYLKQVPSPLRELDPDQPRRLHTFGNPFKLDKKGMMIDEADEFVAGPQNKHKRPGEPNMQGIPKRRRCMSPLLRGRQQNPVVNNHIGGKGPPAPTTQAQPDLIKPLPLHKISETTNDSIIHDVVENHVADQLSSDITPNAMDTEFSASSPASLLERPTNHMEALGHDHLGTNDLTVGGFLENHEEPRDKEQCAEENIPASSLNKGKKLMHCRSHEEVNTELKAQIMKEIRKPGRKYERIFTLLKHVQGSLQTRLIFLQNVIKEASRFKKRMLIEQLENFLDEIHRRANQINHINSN
UniProt Q9NVH2: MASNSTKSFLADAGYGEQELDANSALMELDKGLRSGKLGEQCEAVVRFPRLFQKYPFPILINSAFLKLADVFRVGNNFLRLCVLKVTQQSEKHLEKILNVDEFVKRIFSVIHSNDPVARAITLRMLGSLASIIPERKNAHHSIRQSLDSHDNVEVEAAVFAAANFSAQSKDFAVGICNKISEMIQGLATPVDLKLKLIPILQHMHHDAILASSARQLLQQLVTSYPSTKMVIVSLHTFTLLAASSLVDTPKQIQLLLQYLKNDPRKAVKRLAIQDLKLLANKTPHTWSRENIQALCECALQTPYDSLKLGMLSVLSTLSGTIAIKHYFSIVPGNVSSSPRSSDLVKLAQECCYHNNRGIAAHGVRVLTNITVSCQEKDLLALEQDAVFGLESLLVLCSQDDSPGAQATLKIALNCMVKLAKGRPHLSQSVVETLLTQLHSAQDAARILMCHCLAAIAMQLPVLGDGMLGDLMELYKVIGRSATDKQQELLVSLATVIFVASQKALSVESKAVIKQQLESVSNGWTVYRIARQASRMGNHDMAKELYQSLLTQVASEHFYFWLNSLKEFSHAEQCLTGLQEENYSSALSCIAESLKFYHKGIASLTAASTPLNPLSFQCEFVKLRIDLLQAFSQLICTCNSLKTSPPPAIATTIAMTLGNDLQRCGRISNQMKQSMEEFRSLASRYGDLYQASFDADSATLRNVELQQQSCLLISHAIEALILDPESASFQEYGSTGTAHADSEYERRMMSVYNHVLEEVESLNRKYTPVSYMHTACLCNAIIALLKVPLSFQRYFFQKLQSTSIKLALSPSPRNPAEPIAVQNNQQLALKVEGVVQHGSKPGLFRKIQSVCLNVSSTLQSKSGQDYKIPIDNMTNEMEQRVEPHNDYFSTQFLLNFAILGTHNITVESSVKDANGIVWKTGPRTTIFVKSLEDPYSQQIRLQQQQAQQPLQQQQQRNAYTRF
UniProt Q5TA45: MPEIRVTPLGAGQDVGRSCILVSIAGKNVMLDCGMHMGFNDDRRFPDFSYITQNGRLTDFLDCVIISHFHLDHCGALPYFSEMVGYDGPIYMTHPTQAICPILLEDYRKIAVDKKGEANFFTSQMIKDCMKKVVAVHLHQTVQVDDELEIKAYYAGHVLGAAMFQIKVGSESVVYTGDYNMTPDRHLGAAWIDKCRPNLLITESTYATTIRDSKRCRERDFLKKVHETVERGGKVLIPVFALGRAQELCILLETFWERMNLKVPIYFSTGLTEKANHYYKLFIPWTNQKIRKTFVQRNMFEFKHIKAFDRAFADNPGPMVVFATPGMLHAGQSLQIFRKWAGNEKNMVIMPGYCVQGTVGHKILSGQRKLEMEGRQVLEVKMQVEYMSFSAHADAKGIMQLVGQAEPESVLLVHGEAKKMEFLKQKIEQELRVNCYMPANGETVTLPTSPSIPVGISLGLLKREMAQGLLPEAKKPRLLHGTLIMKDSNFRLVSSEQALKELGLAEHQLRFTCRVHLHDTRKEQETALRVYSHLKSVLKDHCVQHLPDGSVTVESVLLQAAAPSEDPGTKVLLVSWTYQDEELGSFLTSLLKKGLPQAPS

Legend:
[1] = biological target: Flag-tagged RPAP2 N-terminal region (1–334) (human) (UniProt Q8IXW5); test: co-IP; Flag-tagged RPAP2 proteins expressed in HeLa cells; sonicated lysate in NET-2 buffer (200 mM NaCl, 0.1% NP-40, 50 mM Tris-HCl pH 7.5); anti-Flag M2 affinity gel, six washes, elution with Flag peptide; western blot
[2] = biological target: Flag-tagged RPAP2 M2 (C136A-C140A) (human) (UniProt Q8IXW5); test: as above
[3] = biological target: Flag-tagged RPAP2 (RNA Pol II-associated protein 2) (human) (UniProt Q8IXW5); test: as above
[4] = biological target: Flag-tagged RPAP2 M1 (C100A-C105A) (human) (UniProt Q8IXW5); test: as above
[5] = biological target: Flag-tagged RPAP2 (RNA Pol II-associated protein 2) (human) (UniProt Q8IXW5); test: co-sedimentation; F-RPAP2 eluate from the Flag IP on a 5%–45% glycerol gradient (50 mM Tris-HCl 7.5, 200 mM NaCl, 1 mM EDTA, 1 mM DTT), 14 hr at 41000 rpm, SW41 rotor, 0.5 ml fractions; western blot
[6] = biological target: endogenous RPAP2 (human (endogenous in HeLa)) (UniProt Q8IXW5); test: co-sedimentation; HeLa cell extract on a 5%–45% glycerol gradient; endogenous RPAP2 and Int11 followed by western blot
[7] = biological target: T1, biotinylated CTD peptide (S7A)×2, not phosphorylated; test: pull-down; 10 μg N-terminally biotinylated CTD peptide on streptavidin-coated Sepharose beads in 0.1 M KCl HEGN; 1 μg recombinant RPAP2 added, 4°C for 3 hr; five washes with 0.3 M KCl HEGN; western blot; both purified
T1 sequence (peptide, biotin on the N-terminus): YSPTSPAYSPTSPA

Substance | binding [3] | binding [5] | further results
Int4 subunit of the Integrator complex (from UniProt Q96HW7 1-963) | binds | binds | binding [1]: binds; binding [2]: no binding; binding [4]: no binding
Int5 subunit of the Integrator complex (from UniProt Q6P9B9 1-1019) | binds | binds | –
Int6 subunit of the Integrator complex (from UniProt Q9UL03 1-887) | binds | binds | –
Int7 subunit of the Integrator complex (from UniProt Q9NVH2 1-962) | binds | binds | –
Int11, the catalytic subunit of the Integrator complex (from UniProt Q5TA45 1-600) | no binding | – | binding [6]: no binding
recombinant GST-RPAP2 (from UniProt Q8IXW5-1 1-612) | – | – | binding [7]: no binding (tested: 1 μg of recombinant RPAP2 protein)
